According to PubChem BioAssay AID1768 (National Center for Advancing Translational Sciences (NCATS), 2009):
The whole screen tested about 270,000 compounds, of which about 620 (0.23%) were called active. This list was built around the results that the source calls inconclusive (neither active nor inactive); the mix of calls is not that of the screen. The call rests on the fitted dose curve; in most records, active means well fitted inhibition curve with a large enough effect in the polarisation, with a control signal flat (not every such curve was filed as active); inconclusive means small, poorly fitted or top-dose-only effect, or effect the other way, or a change in a side signal; inactive means no such curve, though single readings can be large or run the other way; the % refers to the polarisation. Where the call is inconclusive, the potency comes from a doubtful curve fit. “Side channel” marks fits to a control or component signal instead of the main read-out.

molecular target: Menin (Homo sapiens) (UniProt O00255); assay: qHTS Assay for Inhibitors Targeting the Menin-MLL Interaction in MLL Related Leukemias: Competition With Texas Red Labeled MLL-derived Mutant Peptide; conditions: fluorescence polarization; series mostly up to 61.6 µM
Chain of UniProt O00255 (O00255 whole entry, looked up): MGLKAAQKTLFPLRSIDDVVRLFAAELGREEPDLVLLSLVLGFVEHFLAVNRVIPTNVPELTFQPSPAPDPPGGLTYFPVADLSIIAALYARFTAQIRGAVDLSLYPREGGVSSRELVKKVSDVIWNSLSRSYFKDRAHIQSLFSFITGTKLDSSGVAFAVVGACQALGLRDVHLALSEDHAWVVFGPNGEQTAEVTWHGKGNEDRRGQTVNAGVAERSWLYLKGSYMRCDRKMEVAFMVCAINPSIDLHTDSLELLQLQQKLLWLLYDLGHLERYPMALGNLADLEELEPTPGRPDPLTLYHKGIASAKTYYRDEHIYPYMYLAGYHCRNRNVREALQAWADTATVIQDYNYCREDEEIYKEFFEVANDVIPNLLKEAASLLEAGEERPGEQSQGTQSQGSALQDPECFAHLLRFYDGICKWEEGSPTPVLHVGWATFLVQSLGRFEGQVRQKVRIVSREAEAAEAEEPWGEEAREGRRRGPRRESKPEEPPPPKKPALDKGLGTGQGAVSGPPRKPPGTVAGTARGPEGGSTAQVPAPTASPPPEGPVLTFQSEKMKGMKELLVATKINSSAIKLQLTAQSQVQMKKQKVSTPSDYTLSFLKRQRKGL
Potency means the concentration at half of the fitted maximal effect; tags describe the fitted curve by direction and shape or compound fluorescence and quenching.

Question: Which Potency does the source give for `COc1ccccc1/C=C/C(=O)Nc1ccc2c(c1)OCCO2` here?
Answer: The Potency was inconclusive: 39.8 µM [quencher, side channel, single point].

Question: With `O=C(Nc1ccc(C(=O)NC2CCCCC2)cc1)c1cncc(Br)c1` as the compound, how does the Potency read?
Answer: The Potency was inconclusive: 15.8 µM [fluorescent, side channel, single point].

Question: Which Potency does the source give for `CCN(CC)CCN(C(=O)c1ccc2c(c1)OCCO2)c1nc2c(Cl)cccc2s1` here?
Answer: Its Potency is inconclusive: 10 µM [fluorescent, side channel, partial curve].

Question: How did the Potency turn out when `O=[N+]([O-])c1cc(F)c2cccnc2c1O` was run?
Answer: The Potency was inconclusive: 25.1 µM [quencher, side channel, single point].

Question: `CCCCCCCC(=O)NC(Nc1ccc(S(N)(=O)=O)cc1)C(Cl)(Cl)Cl` (stereo unspecified) was tested. Which Potency did it give?
Answer: The Potency was inconclusive: 3.16 µM [inhibitor, single point].

Question: Which Potency does the source give for `Cc1ccc(-n2c(C)cc3c2CCCC3=O)cc1` here?
Answer: The Potency was inconclusive: 39.8 µM [inhibitor, single point].

Question: Which Potency does the source give for `CCOCCCNC(=S)NCCNc1nc2c(C)cccc2cc1C#N` here?
Answer: The Potency was inconclusive: 35.5 µM [inhibitor, single point].

Question: With `Cc1onc(-c2ccccc2Cl)c1C(=O)NNC(=O)C1CCN(Cc2ccccc2)CC1` as the compound, how does the Potency read?
Answer: Its Potency is inconclusive: 12.6 µM [inhibitor, partial curve].

Question: `c1ccc2cc3c(NCCN4CCOCC4)ccnc3cc2c1` was tested. Which Potency did it give?
Answer: The Potency was inconclusive: 28.2 µM [inhibitor, partial curve].

Question: `O=C(CSc1nc2c([nH]c3ccccc32)c(=O)n1-c1cccc(Cl)c1)N1CCOCC1` was tested. Which Potency did it give?
Answer: Its Potency is inconclusive: 39.8 µM [inhibitor, single point].

Question: With `O=C(COc1ccccc1/C=C1\SC(=O)NC1=O)Nc1ccccc1` as the compound, how does the Potency read?
Answer: The Potency was inconclusive: 31.6 µM [quencher, side channel, partial curve].

Question: For `C(=N\Nc1ncnc2sc3c(c12)CCC3)/c1cccs1`, which Potency is on record?
Answer: Its Potency is inconclusive: 20 µM [quencher, side channel, partial curve].

Question: Which Potency does the source give for `O=c1c(O)cc(C2Oc3cc(O)cc(O)c3CC2O)cc2c(C3Oc4cc(O)cc(O)c4CC3O)cc(O)c(O)c12` (stereo unspecified) here?
Answer: The Potency was inconclusive: 11.2 µM [quencher, side channel, partial curve].

Question: With `N#Cc1ccc(CSc2nnc(NC(=O)c3ccc4ncsc4c3)s2)cc1` as the compound, how does the Potency read?
Answer: Its Potency is “inactive”.

Question: Which Potency does the source give for `CC(=O)Nc1ccc(NC(=O)CCn2c(=S)oc3ccccc32)cc1` here?
Answer: The Potency was inconclusive: 12.6 µM [fluorescent, side channel, partial curve].

Question: For `c1ccc(Cc2nnc(N3CCCCC3)c3ccccc23)cc1`, which Potency is on record?
Answer: Its Potency is inconclusive: 15.8 µM [fluorescent, side channel, partial curve].
